Data taken from the BET-seq Pho4 binding data (Le et al. 2018).
This is one part of the list. Values were computed here from the reads of four pooled replicates and scatter widely.

target: T1, Pho4 (S. cerevisiae) (UniProt P07270); assay: relative binding free energy (BET-seq); higher = weaker binding; conditions: reference: library average
T1 sequence: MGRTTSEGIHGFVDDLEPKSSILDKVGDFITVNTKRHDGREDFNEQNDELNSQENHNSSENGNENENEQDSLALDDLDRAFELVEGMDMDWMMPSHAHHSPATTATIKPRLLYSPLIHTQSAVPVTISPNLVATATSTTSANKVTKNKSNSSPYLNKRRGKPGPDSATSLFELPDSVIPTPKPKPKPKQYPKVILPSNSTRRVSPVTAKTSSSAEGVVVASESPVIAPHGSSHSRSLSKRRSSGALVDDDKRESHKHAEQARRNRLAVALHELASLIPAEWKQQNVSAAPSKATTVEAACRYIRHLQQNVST

Row | Sequence | relative binding free energy [kcal/mol]
1 | GCTGTCACGTGATGGT | 0.27
2 | GTGATCACGTGGTGCT | 0.16
3 | GATTGCACGTGCAGGT | -0.02
4 | GTCGCCACGTGGTGGT | -0.06
5 | GTTATCACGTGTAACT | 0.29
6 | GGCGGCACGTGGTGAT | 0.01
7 | ATTGACACGTGGGATT | -0.14
8 | ATTGCCACGTGTAGGA | 0.05
9 | ACGTTCACGTGTTTAT | 0.25
10 | AGTGTCACGTGAGCGG | 0.13
11 | GGTCACACGTGGGGTC | 0.12
12 | CTGGGCACGTGTTGTA | 0
13 | ATGTACACGTGTTTTA | 0.06
14 | GTGTGCACGTGTTGAA | 0.02
15 | GAGGGCACGTGTGTAT | -0.12
16 | AGTTTCACGTGGATGA | 0.25
17 | AGGAGCACGTGAGTTA | 0.22
18 | TGCGTCACGTGCTGAT | 0.17
19 | CATTTCACGTGTTCTG | 0.41
20 | CTCGACACGTGAGGGT | 0.22
21 | TATTTCACGTGGTATT | 0.28
22 | CTTATCACGTGTTGTA | 0.15
23 | ATTTTCACGTGCAGTT | 0.31
24 | GTAACCACGTGGGTGG | -0.22
25 | TGTTTCACGTGTGGAA | 0.27

Row | Sequence | relative binding free energy [kcal/mol]
26 | GATAACACGTGTTTGA | 0.07
27 | ACGTGCACGTGAGTTG | 0.07
28 | AAGGTCACGTGAAAGG | 0.32
29 | GTTTACACGTGTCCGG | 0.27
30 | ACGGGCACGTGAATTG | 0.19
31 | TTATACACGTGAAATT | 0.29
32 | CTTATCACGTGGGATT | 0.02
33 | TACGTCACGTGATAGT | 0.28
34 | TTGTTCACGTGACGTG | 0.41
35 | GATGTCACGTGTCGAG | 0.22
36 | AGTGTCACGTGTTAAT | 0.06
37 | GTTAGCACGTGGAGAT | 0.05
38 | TTTTTCACGTGTAAGC | 0.29
39 | GTGTACACGTGGGCTT | 0.01
40 | TAGGGCACGTGTAAAT | -0.02
41 | ACTAGCACGTGGGTTT | -0.15
42 | TCTTTCACGTGCTTGG | 0.31
43 | GTAGTCACGTGTGATA | 0.15
44 | TATTTCACGTGTAACT | 0.33
45 | TGTTTCACGTGGCTTT | 0.12
46 | GGTTGCACGTGGGGAG | -0.05
47 | AGTGGCACGTGCTGTT | -0.28
48 | TTCGACACGTGGGGAT | 0.08
49 | CTTAGCACGTGTTCGG | -0.16
50 | CGGGACACGTGATAGG | 0.18

Row | Sequence | relative binding free energy [kcal/mol]
51 | TAGTGCACGTGCTTGG | -0.16
52 | TGTCACACGTGGAGAG | 0.11
53 | TTCCTCACGTGAGTTG | 0.37
54 | CGTATCACGTGGTGGT | -0.02
55 | GGTTACACGTGACTGT | 0.19
56 | CTAGTCACGTGTATGG | -0.06
57 | AATTGCACGTGGGACT | 0.02
58 | CTTCTCACGTGTGGTG | 0.17
59 | TCGATCACGTGGTTAA | 0.16
60 | GGATGCACGTGTTGTT | 0.09
61 | GAGGGCACGTGATTAT | 0.05
62 | TTATTCACGTGTGTCA | 0.36
63 | TAATTCACGTGAGGCT | 0.35
64 | CGGTACACGTGGGGCG | -0.1
65 | TGTGACACGTGGAGTG | -0.02
66 | GAGAGCACGTGGAGTA | -0.1
67 | CAGGGCACGTGGCGGA | -0.26
68 | TTCGACACGTGTAGGG | 0.17
69 | TCTGGCACGTGGCGTA | -0.24
70 | TTAAGCACGTGTAGGA | -0.04
71 | TGTGTCACGTGCGTCA | -0.08
72 | AAGGTCACGTGTGGAC | 0.02
73 | AGGTACACGTGGTGCG | -0.07
